Experimental data reported in paper PMC4336329 (PLoS ONE, 2015).
About 2,200 (0.71%) of roughly 310,000 compounds showed an effect of 50% or more. The effect is printed as a negative number. The list shows a part of the results.

What follows are compounds tested against human ether-à-go-go-related gene (hERG) potassium channel (human, UniProt Q12809) (assay: primary screen, population patch clamp on CHO cells stably expressing hERG).
Chain of human ether-à-go-go-related gene (hERG) potassium channel (Q12809 whole entry, looked up): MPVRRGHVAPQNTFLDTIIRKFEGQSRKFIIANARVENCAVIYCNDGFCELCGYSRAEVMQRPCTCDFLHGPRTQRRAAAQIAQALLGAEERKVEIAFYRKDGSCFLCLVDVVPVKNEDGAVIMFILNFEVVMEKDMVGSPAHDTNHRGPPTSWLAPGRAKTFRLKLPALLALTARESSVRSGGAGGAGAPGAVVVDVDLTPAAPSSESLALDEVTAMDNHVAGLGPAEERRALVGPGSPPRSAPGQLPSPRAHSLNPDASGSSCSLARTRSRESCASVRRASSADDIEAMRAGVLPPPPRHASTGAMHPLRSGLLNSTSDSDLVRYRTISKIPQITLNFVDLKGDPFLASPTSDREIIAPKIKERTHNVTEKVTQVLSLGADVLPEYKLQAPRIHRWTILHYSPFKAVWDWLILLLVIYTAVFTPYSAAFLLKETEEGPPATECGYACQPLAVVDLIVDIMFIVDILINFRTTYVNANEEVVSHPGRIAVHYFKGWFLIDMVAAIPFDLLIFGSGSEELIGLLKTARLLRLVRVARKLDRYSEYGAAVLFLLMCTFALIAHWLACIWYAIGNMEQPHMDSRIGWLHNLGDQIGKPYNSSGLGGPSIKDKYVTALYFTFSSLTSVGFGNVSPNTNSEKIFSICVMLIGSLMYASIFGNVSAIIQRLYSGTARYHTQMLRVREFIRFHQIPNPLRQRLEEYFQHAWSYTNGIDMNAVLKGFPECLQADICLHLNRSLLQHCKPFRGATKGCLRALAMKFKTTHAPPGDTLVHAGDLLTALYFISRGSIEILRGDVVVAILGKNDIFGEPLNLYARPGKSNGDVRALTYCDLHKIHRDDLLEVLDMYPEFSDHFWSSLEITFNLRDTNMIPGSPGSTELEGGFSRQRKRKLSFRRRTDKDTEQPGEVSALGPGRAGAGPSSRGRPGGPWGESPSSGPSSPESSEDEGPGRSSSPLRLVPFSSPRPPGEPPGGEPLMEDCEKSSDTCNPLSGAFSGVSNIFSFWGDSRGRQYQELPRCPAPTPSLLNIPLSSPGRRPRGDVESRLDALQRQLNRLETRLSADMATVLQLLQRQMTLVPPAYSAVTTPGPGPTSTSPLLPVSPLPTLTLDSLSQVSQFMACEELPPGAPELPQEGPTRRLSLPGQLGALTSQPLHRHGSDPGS

| SMILES | hERG current change (%, negative = inhibition) at 1uM |
| --- | --- |
| COc1cc(S(=O)(=O)NCC2CCCO2)c(OC)cc1Cl (stereo not drawn) | 6.04% |
| COc1ccc(-c2csc(NC(=O)C3=COCCO3)n2)c(OC)c1 | -5.4% |
| O=C(/C=C/c1ccccc1Cl)N1CCN(c2ncccn2)CC1 | 7.12% |
| CCC(CC)NC(=O)C1CCN(S(=O)(=O)c2cccs2)CC1 | 0.487% |
| CN(CC1CCOCC1)C(=O)CC1C(=O)NCCN1C/C=C/c1ccccc1 (stereo not drawn) | 10.6% |
| CCOC(=O)c1oc2c(O)c(O)ccc2c(=O)c1-c1nncn1-c1ccccc1 | 10.4% |
| O=C(NCc1cccs1)C1CCCN1C(=O)Nc1ccccc1 (stereo not drawn) | 15% |
| CNC(=O)c1cccn(Cc2ccc(C(F)(F)F)cc2)c1=O | 25.7% |
| COc1cc(CNC(=O)CCCC/C=C\C(C)C)ccc1O | 10.9% |
| Cc1cc(Cl)ccc1OCC(=O)NNC(=O)c1ccco1 | 16.8% |
| Nc1ncnc2c1ncn2[C@@H]1O[C@H](CO)C[C@@H]1O.O | -1.06% |
| Cc1ccc(-c2nnc(Nc3ccc(C(=O)N(C)C)cc3)c3ccccc23)cc1S(N)(=O)=O | 12.3% |
| O=C(C1CCCN(S(=O)(=O)c2ccccc2[N+](=O)[O-])C1)N1CCN(c2ccccc2)CC1 (stereo not drawn) | -6.27% |
| Cc1ccc2c(c1)nnn2C1CCN(CC(=O)Nc2ccc(F)cc2)CC1 | -20.7% |
| Cc1cc(C)cc(NC(=O)CCc2nc3sc4c(c3c(=O)[nH]2)CCCC4)c1 | -7.22% |
| CC(=O)Nc1cccc(C(=O)N/N=C/c2ccc(C)o2)c1 | 15.7% |
| NC1=NC(=O)/C(=C/C=C/c2cccs2)S1 | 10.4% |
| CC(C)CN1CC(=O)N2C(c3ccccc3)c3[nH]c4ccccc4c3C[C@H]2C1=O (stereo partly drawn) | 15.6% |
| O=C(NCC1(N2CCOCC2)CCCCC1)c1cccc(S(=O)(=O)Nc2ccc(F)cc2)c1 | 13% |
| CC(C)OC(=O)CC(=O)CSc1nc2c(cc1C#N)CCCCC2 | 12.2% |
| Cc1ccc(NC(=O)CCC(=O)OCC(=O)c2ccc(Oc3ccc([N+](=O)[O-])cc3)cc2)cc1C | 11.3% |
| Cc1cc(/C=C(\C#N)C(=O)NC2CCCCCC2)c(C)n1C | 13.1% |
| COC(=O)c1c(-c2cccs2)csc1NC(=O)CSc1ncnc2sc(C)c(C)c12 | 2.58% |
| CCCCCCCCCC[n+]1cccc(C(=O)N(CC)CC)c1.[Br-] | 3.8% |
